The list shows a part of the results. These are noisy estimates, calculated here from bound and input reads.

The target in this experiment is T1, Pho4 (S. cerevisiae) (UniProt P07270).
T1 sequence: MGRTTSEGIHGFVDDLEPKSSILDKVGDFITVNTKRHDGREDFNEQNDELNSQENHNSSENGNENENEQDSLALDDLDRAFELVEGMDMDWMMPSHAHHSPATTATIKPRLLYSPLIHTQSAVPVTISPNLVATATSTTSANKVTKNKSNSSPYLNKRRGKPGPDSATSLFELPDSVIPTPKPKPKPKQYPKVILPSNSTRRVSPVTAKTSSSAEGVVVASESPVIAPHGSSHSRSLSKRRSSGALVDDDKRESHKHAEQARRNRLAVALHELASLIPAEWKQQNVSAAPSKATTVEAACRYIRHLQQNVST
Kind of experiment: relative binding free energy (BET-seq); higher = weaker binding. The note with it: reference: library average.
Take GTTTACACGTGGGTAT: the “relative binding free energy” value is -0.09 kcal/mol.

Consider ATATACACGTGGTAAT, for which the “relative binding free energy” value was -0.11 kcal/mol.

Turning to AGTGACACGTGTTTAC, the “relative binding free energy” value came out at 0.18 kcal/mol.

For TGGTACACGTGGGCTG, the “relative binding free energy” value is -0.12 kcal/mol.

As to ATTTTCACGTGGTTAG, the “relative binding free energy” value worked out at 0.23 kcal/mol.

For TAGTACACGTGGTTTT, the “relative binding free energy” value is 0.02 kcal/mol.

For CGGTCCACGTGAGTTG, the “relative binding free energy” value amounted to 0.36 kcal/mol.

With ATGTACACGTGGTAGA, the “relative binding free energy” value was -0.06 kcal/mol.

Consider GTGAGCACGTGGGAGA, for which the “relative binding free energy” value is -0.08 kcal/mol.

Regarding TTAGTCACGTGGCGTG, the “relative binding free energy” value was -0.12 kcal/mol.

For ATATACACGTGAAAGG, the “relative binding free energy” value is 0.25 kcal/mol.

As to CGCGTCACGTGAGGAG, the “relative binding free energy” value amounted to 0.11 kcal/mol.

Take GTTCGCACGTGTATTT: the “relative binding free energy” value turned out to be 0.02 kcal/mol.

Take TATTGCACGTGGATAA: the “relative binding free energy” value was -0.15 kcal/mol.

As to TTGTACACGTGAGCTG, the “relative binding free energy” value was 0.19 kcal/mol.

For CTTGTCACGTGTTAAA, the “relative binding free energy” value is 0.11 kcal/mol.

For GGGGTCACGTGGGTTT, the “relative binding free energy” value came out at 0.13 kcal/mol.

In the case of GGATGCACGTGCGAGG, the “relative binding free energy” value worked out at 0.11 kcal/mol.

In the case of TGTTACACGTGGGATT, the “relative binding free energy” value was 0.06 kcal/mol.

For the sequence GATCTCACGTGGTTTG, the “relative binding free energy” value turned out to be 0.24 kcal/mol.

For the sequence AGATACACGTGTGTGT, the “relative binding free energy” value came out at 0.25 kcal/mol.

For TGGAACACGTGTTTTT, the “relative binding free energy” value stood at 0.09 kcal/mol.

On to AGTAGCACGTGATCGG, for which the “relative binding free energy” value amounted to 0 kcal/mol.

In the case of TATGGCACGTGAGACT, the “relative binding free energy” value worked out at 0.17 kcal/mol.

Regarding AAGGACACGTGAGATG, the “relative binding free energy” value turned out to be 0.27 kcal/mol.

With TTACGCACGTGTGGCA, the “relative binding free energy” value was -0.02 kcal/mol.

In the case of CATCTCACGTGTGTTT, the “relative binding free energy” value amounted to 0.18 kcal/mol.

Take GGTTTCACGTGTCTGA: the “relative binding free energy” value came to 0.4 kcal/mol.

On to TGGGGCACGTGACGTG, for which the “relative binding free energy” value stood at 0 kcal/mol.

Take ACAGGCACGTGGGGCG: the “relative binding free energy” value is -0.32 kcal/mol.

With TGTTTCACGTGAGCGC, the “relative binding free energy” value turned out to be 0.35 kcal/mol.

Consider TTAAGCACGTGTGTAA, for which the “relative binding free energy” value is -0.02 kcal/mol.

For the sequence AACTTCACGTGGAGGT, the “relative binding free energy” value was determined as 0.25 kcal/mol.

TACGTCACGTGTGTTG: the “relative binding free energy” value was determined as 0.28 kcal/mol.

As to ACATGCACGTGTGAGG, the “relative binding free energy” value is -0.03 kcal/mol.

CGGGACACGTGGGGTG: the “relative binding free energy” value is -0.15 kcal/mol.

On to GAGTACACGTGGGGAG, for which the “relative binding free energy” value was -0.06 kcal/mol.

Take AGTTGCACGTGATGCT: the “relative binding free energy” value is -0.03 kcal/mol.

As for TGAATCACGTGAGCGG, the “relative binding free energy” value came out at 0.33 kcal/mol.

Take GGGGTCACGTGTCTAA: the “relative binding free energy” value is 0.13 kcal/mol.

As to GTTGACACGTGGGTTC, the “relative binding free energy” value was -0.14 kcal/mol.

Consider TGAAGCACGTGTTCGG, for which the “relative binding free energy” value was -0.26 kcal/mol.

In the case of TAGTGCACGTGCAGGT, the “relative binding free energy” value was -0.03 kcal/mol.

As to TAAGGCACGTGGGGTC, the “relative binding free energy” value is -0.17 kcal/mol.

Regarding GGTATCACGTGAGTGT, the “relative binding free energy” value was 0.39 kcal/mol.

For CGTGACACGTGGTGAG, the “relative binding free energy” value is 0.09 kcal/mol.

Turning to GCATTCACGTGGTTAT, the “relative binding free energy” value stood at 0.28 kcal/mol.

For the sequence TAGTCCACGTGAGTGT, the “relative binding free energy” value was 0.23 kcal/mol.

Turning to TTGATCACGTGGGAGC, the “relative binding free energy” value is -0.08 kcal/mol.

For TGGAACACGTGAGCTA, the “relative binding free energy” value came to 0.53 kcal/mol.

TGTAGCACGTGAAAGA: the “relative binding free energy” value amounted to 0.31 kcal/mol.

With AAGTTCACGTGCTTTG, the “relative binding free energy” value worked out at 0.33 kcal/mol.

Regarding TTTGGCACGTGTCGAG, the “relative binding free energy” value was -0.09 kcal/mol.

In the case of AAGTGCACGTGTTGTC, the “relative binding free energy” value is -0.11 kcal/mol.

Turning to CTTTTCACGTGCTCGT, the “relative binding free energy” value was found to be 0.35 kcal/mol.

Consider TGGGCCACGTGGACGG, for which the “relative binding free energy” value was -0.07 kcal/mol.

For TAAGCCACGTGGTGGA, the “relative binding free energy” value is -0.1 kcal/mol.

Consider CGTAACACGTGAGTGG, for which the “relative binding free energy” value came to 0.14 kcal/mol.

As to GGTATCACGTGACGTT, the “relative binding free energy” value amounted to 0.21 kcal/mol.

On to TTCGGCACGTGTCGGG, for which the “relative binding free energy” value is -0.05 kcal/mol.

On to TCATTCACGTGGGAGA, for which the “relative binding free energy” value turned out to be 0.28 kcal/mol.

For TCAGTCACGTGGGGTG, the “relative binding free energy” value is 0 kcal/mol.

In the case of TTATGCACGTGAGCTG, the “relative binding free energy” value was 0.11 kcal/mol.

For CGCGTCACGTGGTGTG, the “relative binding free energy” value was -0.04 kcal/mol.

With AAGCGCACGTGTGTGG, the “relative binding free energy” value was -0.09 kcal/mol.

In the case of CGGATCACGTGGGGCA, the “relative binding free energy” value turned out to be 0.01 kcal/mol.

With GGGCACACGTGGGATT, the “relative binding free energy” value is 0.04 kcal/mol.

As for ATGGGCACGTGAATAT, the “relative binding free energy” value was 0.01 kcal/mol.

On to GTTTGCACGTGTGGAA, for which the “relative binding free energy” value was found to be 0.19 kcal/mol.

Consider TTAATCACGTGAAGTT, for which the “relative binding free energy” value worked out at 0.36 kcal/mol.

For TATTCCACGTGGATGT, the “relative binding free energy” value was determined as 0.07 kcal/mol.

Turning to GATCACACGTGGGGGT, the “relative binding free energy” value is -0.09 kcal/mol.

Regarding TATGGCACGTGTTGAA, the “relative binding free energy” value is -0.22 kcal/mol.

Turning to GAGGTCACGTGGTCTG, the “relative binding free energy” value came to 0.18 kcal/mol.

As to GCGCGCACGTGGTGAG, the “relative binding free energy” value was -0.22 kcal/mol.

As to TCTTACACGTGGTTTG, the “relative binding free energy” value was found to be 0.16 kcal/mol.

As to GAGTGCACGTGGATTA, the “relative binding free energy” value was 0.12 kcal/mol.

Regarding GTCGACACGTGTGAGG, the “relative binding free energy” value was determined as 0.04 kcal/mol.

Turning to CTAGTCACGTGCGGTG, the “relative binding free energy” value was -0.15 kcal/mol.

Turning to AGTATCACGTGCTAGT, the “relative binding free energy” value came to 0.05 kcal/mol.

As to AGTTTCACGTGGTCGA, the “relative binding free energy” value came to 0.15 kcal/mol.

Take TATGTCACGTGCTGTG: the “relative binding free energy” value is 0.02 kcal/mol.

In the case of TGATTCACGTGTACAG, the “relative binding free energy” value is 0.32 kcal/mol.

For AGATGCACGTGTGATA, the “relative binding free energy” value was found to be 0.04 kcal/mol.

Turning to TGGCACACGTGTATGA, the “relative binding free energy” value was 0.1 kcal/mol.

As for TATATCACGTGTCGTG, the “relative binding free energy” value amounted to 0.03 kcal/mol.

Take ATTGGCACGTGGCTGC: the “relative binding free energy” value was -0.15 kcal/mol.

Turning to GGCCTCACGTGTGGTT, the “relative binding free energy” value was 0.22 kcal/mol.

With CCGTGCACGTGGGGTA, the “relative binding free energy” value is -0.23 kcal/mol.

On to TTCTGCACGTGGTTTA, for which the “relative binding free energy” value was 0.15 kcal/mol.

In the case of TGGTGCACGTGGTCAA, the “relative binding free energy” value was -0.41 kcal/mol.

Consider GCTCGCACGTGTGGTT, for which the “relative binding free energy” value is 0.1 kcal/mol.

Regarding CAGTTCACGTGTATGG, the “relative binding free energy” value is 0.33 kcal/mol.

For the sequence GCTAGCACGTGGTGTA, the “relative binding free energy” value was -0.2 kcal/mol.

For GGATTCACGTGAATTT, the “relative binding free energy” value stood at 0.58 kcal/mol.

As to GGGTACACGTGAGCGG, the “relative binding free energy” value was 0.33 kcal/mol.

Consider ATTATCACGTGTGTCG, for which the “relative binding free energy” value came to 0.13 kcal/mol.

On to GTGCTCACGTGAGTTT, for which the “relative binding free energy” value stood at 0.37 kcal/mol.

As for GGTATCACGTGATCGG, the “relative binding free energy” value is 0.31 kcal/mol.

On to GGTGCCACGTGTGATA, for which the “relative binding free energy” value is 0.01 kcal/mol.

In the case of GATCGCACGTGGGGTA, the “relative binding free energy” value was -0.19 kcal/mol.

Turning to GATATCACGTGGTTGG, the “relative binding free energy” value is 0.2 kcal/mol.

For the sequence TGTATCACGTGCATTA, the “relative binding free energy” value came to 0.14 kcal/mol.

As to TAATTCACGTGTTGAA, the “relative binding free energy” value was determined as 0.24 kcal/mol.

For the sequence AAGGTCACGTGGATGT, the “relative binding free energy” value was 0.03 kcal/mol.

For the sequence CTGAGCACGTGCGTTG, the “relative binding free energy” value was -0.08 kcal/mol.

Consider TTTAGCACGTGGGCTG, for which the “relative binding free energy” value is -0.27 kcal/mol.

Regarding GTTGACACGTGCTGCG, the “relative binding free energy” value was 0 kcal/mol.

For the sequence GAATACACGTGTAGGG, the “relative binding free energy” value was determined as 0.22 kcal/mol.

For GGGGGCACGTGTCTGT, the “relative binding free energy” value was -0.08 kcal/mol.

In the case of TGGGTCACGTGGAGTA, the “relative binding free energy” value was found to be 0.13 kcal/mol.

Regarding ACGGGCACGTGTTGGT, the “relative binding free energy” value is -0.09 kcal/mol.

Consider GTAGGCACGTGTAAAT, for which the “relative binding free energy” value came to 0.13 kcal/mol.

TTATGCACGTGATGGC: the “relative binding free energy” value was found to be 0.02 kcal/mol.

With TTCGTCACGTGTTCTG, the “relative binding free energy” value came to 0.19 kcal/mol.

Values taken from the BET-seq Pho4 binding data (Le et al. 2018).
